From PubChem BioAssay AID463173 (ICCB-Longwood Screening Facility, Harvard Medical School, 2010)
Among all 52,000 compounds or so, about 4,300 (8.3%) were called active. Cut-off read from the data, not from the text of the source: active = survival mostly below about 52% (no sharp cut-off); inactive = mostly above about 56%. The list shows a part of the results.

test system: DeltatarO mutant; assay: growth inhibition of S. aureus wild type versus tarO mutant, primary screen, teichoic acid synthesis inhibitors, RN4220, OD600 (AID 463173); conditions: OD600, 18 h, active compounds read low, screened at 18.75 µg/mL (by protocol)

Compound | survival
O=C(CSc1nc(=O)[nH]c2c1CCCC2)Nc1ccccc1C(F)(F)F | inactive: 113%
CNC(=O)C1=C(C)NC(=O)NC1c1cccs1 (stereo unspecified) | inactive: 99%
CC1CC(C)CN(c2c3c(nc4cc(-c5ccc(F)cc5)nn24)CCC3)C1 (stereo unspecified) | inactive: 101%
COc1cc(NC(=O)Cn2nc(C(F)(F)F)c3c2CCCC3)c(OC)cc1Cl | inactive: 78%
O=C(Nc1ccc(F)cc1F)c1cc(-c2ccccc2O)no1 | inactive: 85%
Cc1ccc(NC(=O)Cn2c(=O)n(CCCCC(=O)NCCc3ccccc3)c(=O)c3ccccc32)c(C)c1 | inactive: 84%
Cc1nn2c(=O)cc(COC(=O)c3ccc(NC(=O)C4CCCCC4)cc3)nc2s1 | inactive: 123%
CCCCOC(=O)c1ccc(NC(=O)c2cc3c(=O)n4cccc(C)c4nc3n2C)cc1 | inactive: 69%
COc1ccccc1OCC(O)CN (stereo unspecified) | inactive: 76%
O=C(COc1ccccc1Cl)Nc1ccc2oc(-c3ccccc3F)nc2c1 | active: 67%
COCCNC(=O)CCCn1c(=O)c2cc(OC)c(OC)cc2n(CC(=O)Nc2ccc(F)cc2)c1=O | inactive: 93%
CCOC(=O)c1ccc(NC(=O)Cn2cc(C(=O)c3ccc(CC)cc3)c(=O)c3ccc(C)nc32)cc1 | inactive: 100%
CCN1c2ccccc2-c2nc(SCC(=O)NCc3ccc(C)cc3)ncc2S1(=O)=O | inactive: 105%
CCC(=O)Nc1cccc(C)c1 | inactive: 80%
CCOC(=O)c1cnc2ccccc2c1NCCc1ccc(OC)c(OC)c1 | active: 33%
COc1ccc(CNC(=O)c2cnc3sc(N4CCCCCC4)nn3c2=O)cc1 | inactive: 101%
O=S(=O)(c1cccc2nsnc12)N(CCOc1ccccc1)C1CCCCC1 | inactive: 90%
CCn1c(CSc2ncccn2)nnc1SCC(=O)N1CCc2ccccc21 | inactive: 98%
O=C1CCC(C2CCC3(CC2)OCCO3)CC1 | inactive: 99%
O=C(CN1C(=O)CSC1=O)CN1C(=O)CSC1=O | inactive: 101%
O=C(CCS(=O)(=O)c1cc2c(cc1Cl)NC(=O)CO2)NCc1ccccc1Cl | inactive: 83%
Cc1cccc(OCc2nnc(SCC(=O)N(C(C)C)C(C)C)n2Cc2ccco2)c1C | inactive: 73%
O=C(NCc1cccc(Cl)c1)c1ccc(NC(=O)N2CC3CCCN3c3ccccc32)cc1 (stereo unspecified) | inactive: 84%

Compound | survival
Oc1c(C(c2ccc(Cl)cc2Cl)N2CCN(c3ccccc3)CC2)sc2nc(-c3ccco3)nn12 (stereo unspecified) | inactive: 101%
CC(C)Oc1ccc(CNC(=O)c2ccc(CN3CC(=O)N4CCCCC4C3=O)cc2)cc1 (stereo unspecified) | inactive: 122%
CC1(C)CC2(CCO1)NNC(=S)NN2 | inactive: 97%
Cc1ccc(CNC(=O)Cn2c(=O)cc(C(F)(F)F)c3c(C)nn(C)c32)cc1 | inactive: 71%
O=C(O)CCC(=O)Nc1ccc(-c2ccccc2)cc1 | inactive: 62%
CCOc1ccc(-c2nc(Cn3c(=O)cc(-c4ccccc4)c4c(C)nn(C)c43)c(C)o2)cc1 | inactive: 128%
Cc1ccc(CNC(=O)C2CCN(S(=O)(=O)c3c(C)noc3/C=C/c3cccs3)CC2)cc1 | inactive: 77%
CCCCOc1ccc(-c2nnc(-c3ccco3)n2-c2ccccc2)cc1 | inactive: 78%
CCCn1c(SCc2nc(-c3ccc(OC)c(OC)c3)no2)nnc1-c1ccccc1 | inactive: 81%
Cc1ccc(NC(=O)c2cnn3c(C(F)F)cc(-c4ccccc4)nc23)cc1F | inactive: 66%
CC1CCN(C(c2ccccc2)c2nnnn2Cc2ccc(F)cc2)CC1 (stereo unspecified) | inactive: 111%
O=C(NCCc1ccccc1)C1CCC(CNS(=O)(=O)c2ccccc2)CC1 (stereo unspecified) | inactive: 91%
CC(C)Oc1ccc(C(=O)N2CCN(CCc3ccccn3)CC2)cc1 | inactive: 68%
CCCc1nc(SC)ncc1C(=O)N1CCN(c2ccc(Cl)cc2)CC1 | inactive: 75%
CCCn1c(SCC(N)=O)nnc1C(C)C | inactive: 96%
O=c1c2oc3ccccc3c2n(Cc2ccccc2Cl)c(=O)n1Cc1ccco1 | inactive: 73%
O=C(Nc1ccc2nc(SCC(=O)N3CCc4ccccc43)sc2c1)c1ccc(F)cc1 | inactive: 73%
COc1ccc(CN(Cc2ccco2)c2cnc(S(C)(=O)=O)nc2C(=O)Nc2ccc(C)c(Cl)c2)cc1 | inactive: 47%
COc1ccc(NC(=O)C(=O)NCC(c2cccnc2)N2CCc3ccccc32)cc1OC (stereo unspecified) | inactive: 61%
COc1cccc(S(=O)(=O)N2CCN(Cc3ccc4c(c3)OCO4)CC2)c1 | inactive: 75%
CCSc1nnc2c3cc(Br)ccc3n(C)c2n1 | inactive: 93%
CN(Cc1ccccc1)S(=O)(=O)c1ccc(-c2cnc(C3CC3)o2)cc1 | inactive: 76%
Cc1c(C2=CCN(S(=O)(=O)c3cccc(Cl)c3)CC2)c2ccccc2n1CC(=O)N1CCCC1 | inactive: 75%

Compound | survival
Cc1ccc(NC(=O)C(C)Sc2nc(=O)cc(N)n2-c2cccc(C)c2)cc1 (stereo unspecified) | inactive: 59%
CC(NCc1ccc2c(c1)OCO2)C(=O)NC1CCCCC1 (stereo unspecified) | inactive: 72%
Cc1cccc(N2CCN(C(=O)CN3CCSc4ccccc43)CC2C)c1 (stereo unspecified) | inactive: 80%
CCc1ccc(-c2nc3c(c(SCc4ccccc4F)n2)Cc2c(CO)cnc(C)c2O3)cc1 | inactive: 85%
CC1CCc2nn(CC(=O)Nc3ccccc3Cl)cc2C1 (stereo unspecified) | inactive: 77%
COc1ccc(OC)c(CNC(=O)c2ccc(-c3nc(CSc4ccccc4)c(C)o3)cc2)c1 | inactive: 120%
CCOc1ccc(NC(=O)NCCc2c(C)nn(C)c2C)cc1 | inactive: 76%
COc1ccc(NC(=O)CC2C(=O)N(c3ccc(F)cc3)C(=O)N2Cc2ccco2)cc1 (stereo unspecified) | inactive: 92%
Cc1ccccc1CN1C(=O)c2ccccc2Sc2ccc(C(=O)NC(C)c3ccccc3)cc21 (stereo unspecified) | inactive: 91%
CCN1CCOC(=O)C1CC(=O)Nc1cc(C)cc(C)c1 (stereo unspecified) | inactive: 142%
Cc1ccc(N2C(=O)CCSC23C(=O)N(Cc2ccccc2)c2ccccc23)cc1F (stereo unspecified) | inactive: 89%
Cc1cc(C)cc(NS(=O)(=O)c2ccc3[nH]cc(C(=O)N(C)Cc4ccccc4)c(=O)c3c2)c1 | inactive: 102%
Cc1ccc(CNC(=O)Cn2c(=O)n(-c3ccc(Cl)cc3)c(=O)c3c(C)c(C)sc32)cc1 | inactive: 78%
COc1ccc(OC)c(/C=C(/C#N)c2nc(-c3ccc(-c4ccccc4)cc3)cs2)c1 | inactive: 52%
O=C(NCc1ccccc1)c1nn(-c2ccccc2)nc1CO | inactive: 108%
CCOc1ccccc1NC(=O)CN1C(=O)CC(c2ccc(OC)c(OC)c2)Sc2ccccc21 (stereo unspecified) | inactive: 76%
Cc1ccc(-c2nnc(C3CCN(S(=O)(=O)c4ccc(C)c(C)c4)CC3)o2)cc1 | inactive: 103%
Cn1c(-n2cccc2)c(-c2c(-c3ccccc3)[nH]c3c2c(=O)n(C)c(=O)n3C)c(=O)n(C)c1=O | inactive: 102%
CCCCOC(=O)c1ccc(NC(=O)CSc2nc3c(c(=O)[nH]2)CCCC3)cc1 | inactive: 63%
COc1ccccc1NC(=O)CN1CCCN(S(=O)(=O)c2ccc(Br)cc2)CC1 | inactive: 66%
Cc1nc2ccccn2c(=O)c1NC(=O)c1ccc(C(F)(F)F)cc1 | active: 0%
COc1ccc(/C=C(\NC(=O)c2ccccc2)C(N)=O)cc1 | inactive: 79%
COc1ccc(NC(=O)c2cccn2-c2nnc(N3CCCCC3)s2)cc1Cl | inactive: 69%

Compound | survival
CCOc1ccc(NC(=O)Cn2c(C)cc3ccccc3c2=O)cc1 | inactive: 69%
Cc1ccc(NC(=O)Cn2c(=O)n(CCCCC(=O)NCc3ccccc3Cl)c(=O)c3ccccc32)cc1C | inactive: 75%
N#CCCCSc1nnc(Cc2ccc3c(c2)OCO3)o1 | inactive: 97%
CCCCNc1nc2c(S(=O)(=O)c3ccc(C)c(C)c3)nnn2c2ccsc12 | inactive: 43%
Cc1ccc(CSc2nc3c([nH]c4ccccc43)c(=O)n2C)cc1 | inactive: 94%
Cc1c(-c2nc(-c3ccccc3)no2)nnn1-c1cccc(C(F)(F)F)c1 | inactive: 80%
COc1cc(Nc2ncc3c(n2)CCN(Cc2cc(Br)cs2)C3)cc(OC)c1 | inactive: 82%
COc1ccccc1CNC(=O)c1ccc2c(c1)nc(C)n2-c1ccccc1OC | inactive: 77%
COc1ccc(CNC(=O)CSc2nc3ccccc3nc2Cc2ccccc2OC)cc1 | inactive: 70%
COC(=O)c1sc(NC(=O)/C=C/c2ccc(OC)c(OC)c2)c(C(=O)OC)c1C | active: 37%
COc1cccc(C(=O)c2cn(CC(=O)NCc3ccccc3)c3nc(C)ccc3c2=O)c1 | inactive: 72%
COc1ccc(OCc2nc3c4c(-c5ccccc5)c(-c5ccccc5)oc4ncn3n2)cc1 | inactive: 58%
COC(=O)c1cc2c(cc1NC(=O)c1cnn(-c3ccc(C)cc3)c1-n1cccc1)OCO2 | inactive: 69%
CC(C)NC(=O)CCCN1C(=O)CCn2nc(-c3cccn3C)cc21 | inactive: 88%
COc1ccccc1-c1cc(C(=O)Nc2ccccc2C(F)(F)F)no1 | inactive: 71%
O=C(O)c1ccc(-n2c(/C=C\c3ccc(O)cc3)nc3ccccc3c2=O)cc1 | active: 58%
Cc1ccc(C2=Nc3ccccc3N(CC(=O)NCc3ccc(F)cc3)C(=O)C2)cc1C | inactive: 90%
COc1ccc(/C=C(\C#N)c2nc(-c3cc4c(ccc5ccccc54)oc3=O)cs2)cc1O | inactive: 56%
CCOC(=O)c1ccccc1NC(=O)c1sc2ncn(Cc3cccc(F)c3)c(=O)c2c1C | inactive: 86%
Nc1cc(N)nc(SCCN2CCOCC2)n1 | inactive: 74%
COc1cn(CC(=O)Nc2cccc(C)c2C)c(CN2CCCCC2)cc1=O | inactive: 80%
Cc1ccc(C)c(NC(=O)CSc2c3c(nc4ccc(Cl)cc24)CCCC3)c1 | inactive: 53%
